Laboratory results reported in PubChem BioAssay AID485344 (National Center for Advancing Translational Sciences (NCATS), 2010).
The whole screen tested about 340,000 compounds, of which about 6,900 (2%) were called active. No stated cut-off is given here; in the data, active means inhibition above about 30%; inactive means below that, where a call was filed. The entries are a selection whose mix differs from that of the whole data set. The source gives no active or inactive call for entries shown without one.

target: D(2) dopamine receptor (Homo sapiens) (UniProt P14416); assay: HTS Assay for Allosteric Antagonists of the Human D2 Dopamine Receptor: Primary Screen for Antagonists; details: HEK293 TREx D2 cells, calcium flux, dopamine EC80; at 10 µM; stronger effect = higher value; further: 0% is about no effect
Procedure, shortened: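 Dopamine at EC80 is the agonist stimulus; test compounds precede it by 180 s. Calcium flux read kinetically in a force-coupled, inducible HEK293 T-REx D2 cell line.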

Sequence of UniProt P14416 (P14416 whole entry, looked up): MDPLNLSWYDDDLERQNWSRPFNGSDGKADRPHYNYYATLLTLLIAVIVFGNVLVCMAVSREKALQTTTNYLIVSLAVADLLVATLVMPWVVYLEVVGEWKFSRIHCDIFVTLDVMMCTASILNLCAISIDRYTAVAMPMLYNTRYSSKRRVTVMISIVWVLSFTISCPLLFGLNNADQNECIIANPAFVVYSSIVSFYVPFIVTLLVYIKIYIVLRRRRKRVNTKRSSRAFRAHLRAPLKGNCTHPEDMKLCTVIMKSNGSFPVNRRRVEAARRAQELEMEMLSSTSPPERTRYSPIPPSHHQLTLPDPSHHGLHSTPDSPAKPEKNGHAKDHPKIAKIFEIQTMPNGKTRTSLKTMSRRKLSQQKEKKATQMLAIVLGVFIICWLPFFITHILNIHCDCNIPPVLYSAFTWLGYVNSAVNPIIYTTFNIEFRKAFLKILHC

Compound	inhibition
CCN(CC)S(=O)(=O)c1ccc2c(c1)N(CC(=O)NCCc1ccccc1)C(=O)CO2	6.8%
CCN1CCN(c2nc3c(S(=O)(=O)c4ccc(C)cc4)nnn3c3ccsc23)CC1	-9.73%
CCc1ccc2oc(-c3cccc(NC(=O)COc4ccccc4Cl)c3)nc2c1	-11.4%
CCOc1ccc2nc(N3CCCC(C(=O)Nc4ccc(CC)cc4)C3)sc2c1 (stereo not drawn)	0.156%
COc1cc(OC)c(NC(=O)CC(C)S(=O)(=O)c2ccc3c(c2)NC(=O)CO3)cc1Cl (stereo not drawn)	-0.414%
COc1ccc(S(=O)(=O)NCCc2csc(-c3cccc(F)c3)n2)cc1OC	1.94%
CCn1cc(S(=O)(=O)c2ccc(OC)cc2)c(=O)c2cc(F)c(N3CCCCCC3)cc21	-0.0562%
COc1ccc(-c2nn(-c3ccc(C)c(Cl)c3)c3c2cnc2cc(OC)c(OC)cc23)cc1	-12.4%
Nc1nc(Nc2cccc(Cl)c2)sc1C(=O)c1ccc(F)cc1	-13.3%
CCOc1ccc(/C=C/C(=O)Nc2sc3c(c2C(=O)OC)CCCC3)cc1	11.2%
CCC1CN(C(=O)NCc2ccc(F)cc2)c2cc(Cl)ccc2O1 (stereo not drawn)	-11.4%
COc1ccc(C2CC(=O)c3cc(-c4nc(-c5ccc(C)cc5)cs4)c(=O)[nH]c3C2)cc1 (stereo not drawn)	-17.9%
CCOC(=O)c1c(C)[nH]c(C)c1S(=O)(=O)N(C)CC(=O)NCc1ccc(C)cc1	9.77%
CCOc1cccc(CNC(=O)c2ccc(N3CCCC3)c(NC(=O)Nc3ccccc3CC)c2)c1	-1.2%
Cc1cccc(OCC(O)Cn2c(=N)n(CCN3CCOCC3)c3ccccc32)c1 (stereo not drawn)	active: 31.7%
COc1ccc(NC(=O)C2CCCN(S(=O)(=O)c3c(C)[nH]c(=O)[nH]c3=O)C2)cc1 (stereo not drawn)	-2.24%
CCCCOc1ccc(CNC(=O)CN2C(=O)CCn3nc(-c4cn(C)c5ccccc45)cc32)cc1	3.08%
O=C(COc1cccc2cccnc12)Nc1ccccc1N1CCOCC1	active: 30.2%
CCCCOc1ccc(Cl)cc1CSc1nnc(CC)n1N	active: 35.5%
CCc1nn(CC(=O)NCCc2ccc(OC)c(OC)c2)c(=O)c2cc3occc3n12	-5.45%
CCOC(=O)c1ccc(NC(=O)CSc2nc(-c3ccc(F)cc3)cc(C(F)(F)F)c2C#N)cc1	-16.4%
Cc1ccc(NC(=O)Nc2c(C)n(C)n(-c3ccccc3)c2=O)c(Cl)c1	-0.138%
COc1ccccc1NC(=O)c1ccc(-c2nc(COc3ccc(C)cc3)c(C)o2)cc1	5.45%
CCOc1ccc(NC(=O)C2=C(C)C(=O)OC23CCC(C)CC3)cc1 (stereo not drawn)	17.3%

Compound	inhibition
O=C(CSc1ncc2c(n1)-c1cc(Cl)ccc1N(Cc1ccccc1)S2(=O)=O)NCCc1ccccc1	2.42%
CS(=O)(=O)Nc1ccc(-c2nc3ccccc3s2)cc1	-10.8%
COc1ccc(NC(=O)c2cccn2-c2nnc(N3CCCCC3)s2)c(OC)c1	7.45%
COC(=O)c1ccc(C)c(NC(=O)Cn2cnc3ccccc3c2=O)c1	active: 35.4%
CCOC(=O)COc1cc(C)c(Cl)cc1C(=O)c1ccn2nc(-c3ccc(OC)cc3)cc2n1	-6.09%
Cc1ccc(NS(=O)(=O)c2ccc3c(c2)CCN3C(=O)C2CC2)c(C)c1	24.1%
Cc1ccc(NC(=O)c2ccc3c(O)c(S(=O)(=O)c4ccc(Cl)cc4)c(=O)[nH]c3c2)cc1	-1.93%
CCOC(=O)C1CCCN(C(=O)Cn2ncc3c(C)n(Cc4ccc(Cl)cc4)c(C)c3c2=O)C1 (stereo not drawn)	9.11%
CC1=C(C#N)C(NC(=O)c2ccccc2)(C(F)(F)F)C(=O)N1 (stereo not drawn)	-3.6%
Cc1ccc(S(=O)(=O)c2nc(-c3cccs3)oc2SCc2ccc(F)cc2)cc1	9.66%
CC(C)c1ccccc1NC(=O)C(Cc1c[nH]c2ccccc12)NC(=O)OC(C)(C)C (stereo not drawn)	3.21%
Cc1cccc(N2CCN(C(=O)Cn3c(C)c4cnn(-c5ccccc5)c(=O)c4c3C)CC2)c1C	18.1%
CCCCn1c(SCc2ccccc2C)nc2ccsc2c1=O	10.7%
COc1ccc(CNC(=O)C(=O)NCC(c2ccco2)S(=O)(=O)c2cccs2)cc1 (stereo not drawn)	12.6%
Cc1nnc(SCc2cc(=O)c3cc(F)ccc3[nH]2)n1C	-10.5%
COc1ccc(C(=O)NC2CC3CCCC(C2)N3Cc2ccccc2)cc1 (stereo not drawn)	active: 82.3%
O=C(Cc1ccc(NC(=O)N2CCCCc3ccccc32)cc1)NCc1cccc(Br)c1	3.25%
COc1ccc(Cl)cc1NC(=O)Cn1c(=O)n(-c2ccc(C)cc2)c(=O)c2ccc(C(=O)NCc3ccccc3Cl)cc21	-12%
COc1ccccc1CNC(=O)Cc1c(C)c2cc3c(C)coc3c(C)c2oc1=O	28%
CCOc1ccc(CCNC(=O)C2Cc3ccccc3N2C(=O)CC)cc1 (stereo not drawn)	6.14%
Cc1ccccc1Cn1c(=O)n(Cc2ccco2)c(=O)c2sc3ccccc3c21	9.46%
COc1ccc(CNC(=O)CC(C)CC2=NS(=O)(=O)c3ccccc3N2)cc1 (stereo not drawn)	-7.73%
CCN(CC)C(=O)C1=C(C)Nc2nc3ccccc3n2C1c1ccccc1F (stereo not drawn)	8.61%
CCC(=O)N1CCc2cc(CNC(=O)Nc3cc(OC)c(OC)c(OC)c3)ccc21	19.4%
